From US20250255960A1 (HRAIN BIOTECHNOLOGY, published 2025)

Target: T1, recombinant human CD70-alFc protein (human; alpaca, UniProt P32970 39-193)
T1 construct: range 39-193; Made in 293T cells; also called CD70-alIgG1Fc fusion protein; recombinant human CD70 protein
T1 sequence: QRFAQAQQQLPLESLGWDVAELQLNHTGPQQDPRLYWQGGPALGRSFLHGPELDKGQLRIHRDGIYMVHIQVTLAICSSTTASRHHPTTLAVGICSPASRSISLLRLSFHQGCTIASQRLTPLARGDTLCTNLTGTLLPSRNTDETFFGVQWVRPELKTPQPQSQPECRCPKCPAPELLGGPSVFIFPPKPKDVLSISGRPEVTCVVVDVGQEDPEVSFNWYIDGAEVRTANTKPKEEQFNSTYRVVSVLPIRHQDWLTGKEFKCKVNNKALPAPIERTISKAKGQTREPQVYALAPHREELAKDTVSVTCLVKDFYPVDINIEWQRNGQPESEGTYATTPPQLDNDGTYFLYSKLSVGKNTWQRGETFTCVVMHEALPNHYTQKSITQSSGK
Assay: ELISA; 100 ng/well recombinant human CD70 protein coated, VHH-huFc in gradient dilution
Experimental: The specific operation of the ELISA experiment is as follows: 100 ng/well of the recombinant human CD70 protein prepared above was added to the microtiter plate, and coated overnight at 4° C. Washed three times with PBS, 1% BSA/PBS was added, 200 μL/well, then the above microtiter plate was blocked at 37° C. for 1 hour. After washing the plate with 100 μL of PBS, the above four scFv proteins were added in gradient dilution, and combined at 37° C. for 1 hour. Washed three times with PBST, 100 μL of 1:5000 diluted HRP-goat anti-human IgG (Fab specific) was added, and bound for 1 hour at 37° C. Washed with PBST three times, 100 μL/well TMB chromogen solution was added for development at 37° C. for 10 minutes, 100 μL/well ELISA stop solution was added, the absorbance value at OD₄₅₀ was obtained with microplate reader, the results are shown by FIG. 7 and Table 3.

Row | EC50 [ng/mL] | Binder
1 | 5.55 | CD70-2A5 VHH-huIgG1-Fc (Fc fusion, human, domain: IgG1-Fc; Recombinant VHH-huIgG1-Fc made in 293F cells; also called VHH-huFc antibody CD70-2A5) heavy: EVQLVESGGGLVQAGGSLRLSCAASGSIFSINAMGWYRQAPGKQRELVAAITSGGSTNYADSVKGRFTISRDNAKNTVYLQMNSLKPEDTAVYYCNAGAGRAFPGDYWGQGTQVTVSS[letters of human IgG1 Fc left out]
2 | 5.29 | CD70-5C10 VHH-huIgG1-Fc (Fc fusion, human, domain: IgG1-Fc; Recombinant VHH-huIgG1-Fc made in 293F cells) heavy: QVQLVESGGGLVQAGGSLRLSCAASGSIFSMNAMGWYRQAPGKQRELVAAITSGGSTNYVDSVKGRFTISRDNAKNTVYLQMNSLKPEDTAVYYCNAGAGRAFPGDYWGQGTQVTVSS[letters of human IgG1 Fc left out]
3 | 8.73 | CD70-8A6 VHH-huIgG1-Fc (Fc fusion, human, domain: IgG1-Fc; Recombinant VHH-huIgG1-Fc made in 293F cells) heavy: EVQVVESGGGLVQPGGSLRLSCAASRSIFSINAMGWYRQAPGKQRELVAAITSGGSTNYADSVKGRFTISRDNAKNTVYLQMNSLKPEDTAVYYCNSGAGRAFPGDYWGQGTLVTVSS[letters of human IgG1 Fc left out]
4 | 7.05 | CD70-8E1 VHH-huIgG1-Fc (Fc fusion, human, domain: IgG1-Fc; Recombinant VHH-huIgG1-Fc made in 293F cells) heavy: QVQLVETGGGLVQAGGSLRLSCAASGNIFSNNAMGWYRQAPGKQRELVAAITSDGSTNYVDSVKGRFTISRDNAKNTVLLQMNSLKPEDTAVYYCNAGAGRAFPGDYWGQGTLVTVSS[letters of human IgG1 Fc left out]
5 | 5.95 | CD70-8B4 VHH-huIgG1-Fc (Fc fusion, human, domain: IgG1-Fc; Recombinant VHH-huIgG1-Fc made in 293F cells; also called VHH-huFc antibody CD70-8B4) heavy: EVQLVESGGGFVQPGGSLRLSCAASGFTLDGYAVAWFRQAPGKEREGVSCISSSDGSTYYIDSVQGRFTITRNNAKNTVYLQMNSLKPEDTAVYYCTTDVLTSCRSDRWLEVWGQGTLVTVSS[letters of human IgG1 Fc left out]
6 | 8.48 | CD70-8F9 VHH-huIgG1-Fc (Fc fusion, human, domain: IgG1-Fc; Recombinant VHH-huIgG1-Fc made in 293F cells) heavy: QLQLVESGGGLVQAGGSLRLSCAVSGRTSSTYAMAWFRQAPGKEREIVAVIGWSGGRTAYADSVKGRFTIAKDNAKNTVSLQMNSLKPEDTGVYYCAADSEQSSSSEGQAYGYEDWGQGTLVTVSS[letters of human IgG1 Fc left out]
7 | 4.97 | CD70-9D8 VHH-huIgG1-Fc (Fc fusion, human, domain: IgG1-Fc; Recombinant VHH-huIgG1-Fc made in 293F cells; also called VHH-huFc antibody CD70-9D8) heavy: QLQLVESGGGLVQPGGSLRLSCAVSGRTSSTYAMAWFRQAPGKEREIVAVITWSGGRTAYADSVKGRFTIAKDSAKNTVYLQMNSLKPEDTAVYYCAADSEVSSSSEGQYGYESWGQGTQVTVSS[letters of human IgG1 Fc left out]
8 | 7.38 | CD70-11C9 VHH-huIgG1-Fc (Fc fusion, human, domain: IgG1-Fc; Recombinant VHH-huIgG1-Fc made in 293F cells; also called VHH-huFc antibody CD70-11C9) heavy: QVQLVESGGGLVQPGGSLRLSCAASGFTLDYYAVGWFRQAPGKEREGVSCISSSSDGSTYYVDSVLGRFTISRNNAENTVYLQMNSLKPEDTAVYYCSTDVLTSCRSDRYLEVWGQGTLVTVSG[letters of human IgG1 Fc left out]
